Data taken from the supplement of paper PMC11417369.
The list shows a part of the results.

system: PfAP2-HC AP2 domain (GST-tagged); test: gcPBM binding intensity (ln(normalized median fluorescence intensity)); higher = stronger DNA binding
Outline: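 After 1 h on an Agilent 4 × 180k array of primer-extended double-stranded 36-bp intergenic genomic probes and negative controls, bound GST-tagged P. falciparum DNA-binding domains were detected with Alexa488 anti-GST antibody and scanned at 488 nm. The domains had been expressed in E. coli, and binding took place in 1× PBS with 1% milk, 0.2 mg/ml BSA, 0.5% salmon testes DNA and 0.03% Triton X-100. Binding intensity is the highest Masliner-normalised natural-log median intensity across replicate spots of either probe orientation.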

Sequence	gcPBM binding intensity (ln)
TACGTTTTATGACACACACACAAAAAAAAAAAAAAA [CACACA_site7764]	9.86
GATGTATAAAATAATACATGCATGTCCTACATATAT [TGCATGCA_site155]	10
TTTCTTTTTCGATATACACACTGTATGTGTCTAAAA [CACACA_site6054]	9.95
CATCACCTTTTTAAATGTACGCATAATACCAAAAAA [XGTACX_site1587]	9.58
GTAGGTTACAAAATGTGAGAGAAGCAAATATAGAAA [CACACA_negctrl_site1819]	9.74
TTTTGTTTTTAGTTTATACACACCATATTAATATAA [CACACA_site3102]	9.75
TTGTATTAAAATCAAGTGCATATAATTTAAGTTCAT [GTGCAC_site9495]	9.5
CTTTGGTTATAACACACATGCACACGTAAATAAATA [TGCATGCA_site976]	10.1
TATCATATATTATAGCGTACTTATTTATTTATTTAT [XGTACX_site1676]	9.9
TATAATAGTTCATAGGTGCAATATAATAAATTTATA [GTGCAC_site9573]	9.64
AAAAAAAAAAAAAAAAGTACATGAAAAAAAGAAGAA [XGTACX_site8384]	9.65
ATATAAGTACCTATAACACACATATATTATAAGTAT [CACACA_site7281]	9.9
TAGAATAAATTAATTACACACGGAATTATATATATA [CACACA_site1616]	9.66
AATGGTTATAATATATGTACATATAAATATACTGAA [XGTACX_site8533]	9.69
TATAGCAAAATATTCACACAAACTATTAATAAAAGT [CACACA_site5795]	9.85
TTTTTTTTTTAGTATGAACACACATATATATTATAA [CACACA_site8957]	9.68
ATAAAACTTATTTAACGTACATATTTTATATACCTT [XGTACX_site5353]	9.74
TATAAAATAAATAACAAAAAAAATAAAATAAAAATA [TGCATGCA_negctrl_site297]	9.66
AAAAAATACATCAAAAGAAACATATATATATATATA [GTGCAC_negctrl_site719]	9.59
GATCATTCTAAATATAAACACACATAAATATATACA [CACACA_site9108]	9.71
ATAATATAATAATATTGTACATGGTCAAATATGAAA [XGTACX_site8390]	9.77
GTTTATATATTATAAAGTACATATGAATTTAATAAT [XGTACX_site3601]	9.46
AAAAAATAAATAAACATAAATAAATAAATAAATATA [XGTACX_negctrl_site340]	9.73
ATTTCAAAATATAGCTGTACAAAAAATGTAGATATA [XGTACX_site5843]	9.8
